Assay results as given in the supplement of paper PMC4604168 (melanoma cell lines).
Some of the results follow. Many values rest on one well or one pass, so single values are uncertain.

Key:
Test in all cases: cell count relative to DMSO control; melanoma cells; higher = more viable cells
Conditions in all cases: library dose: standard library concentration; 72 h
SkMel28 = tested on: SkMel28
SkMel2 = tested on: SkMel2
SkMel30 = tested on: SkMel30
SkMel5 = tested on: SkMel5
UACC257 = tested on: UACC257
UACC62 = tested on: UACC62
WM115 = tested on: WM115
WM1716 = tested on: WM1716
WM3526 = tested on: WM3526
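Note: cells treated in 1,536-well plates, then fixed and DAPI-stained, with nuclei counted from automated high-throughput microscope images.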

| Compound | cell count (SkMel28) [%] | cell count (SkMel2) [%] | cell count (SkMel30) [%] | cell count (SkMel5) [%] | cell count (UACC257) [%] | cell count (UACC62) [%] | cell count (WM115) [%] | cell count (WM1716) [%] | cell count (WM3526) [%] |
| --- | --- | --- | --- | --- | --- | --- | --- | --- | --- |
| CN(c1ncccc1CNc1nc(Nc2ccc3c(c2)CC(=O)N3)ncc1C(F)(F)F)S(C)(=O)=O + CC(C)CCN1c2nc(Nc3cc(F)c(O)c(F)c3)ncc2N(C)C(=O)C1C [BID1870] (first compound 0.4 µM, partner dose 1 µM) | 55.8 | 64.9 | 80.8 | 75.2 | 85.5 | 90.1 | 81.6 | 72.2 | 77 |
| CS(=O)(=O)c1ccc(C(=O)Nc2ccc(Cl)c(-c3ccccn3)c2)c(Cl)c1 [vismodegib] + O=C(Nc1ccccc1)c1cc([N+](=O)[O-])ccc1Cl [GW9662] (first compound 5 µM, partner dose 10 µM) | 66.2 | 95 | 90.3 | 90.8 | 88.8 | 74.2 | 104 | 104 | 89.9 |
| CCCS(=O)(=O)Nc1ccc(F)c(C(=O)c2c[nH]c3ncc(Cl)cc23)c1F + N#Cc1c(O)c2c(-c3ccc(-c4ccccc4O)cc3)csc2[nH]c1=O [A769662] (first compound 0.4 µM, partner dose 10 µM) | 64 | 106 | 124 | 100 | 101 | 68.7 | 99.1 | 77.8 | 67.3 |
| CCCS(=O)(=O)Nc1ccc(F)c(C(=O)c2c[nH]c3ncc(Cl)cc23)c1F + Cn1cc(/C=C2\C(=O)Nc3cccnc32)c2ccccc21 [GW441756] (first compound 0.4 µM, partner dose 2 µM) | 42.4 | 111 | 113 | 82.3 | 81.5 | 62.3 | 92 | 74.9 | 56.5 |
| CCCS(=O)(=O)Nc1ccc(F)c(C(=O)c2c[nH]c3ncc(Cl)cc23)c1F + O=S(=O)(c1ccccc1)N(CC(F)(F)F)c1ccc(C(O)(C(F)(F)F)C(F)(F)F)cc1 [T0901317] (first compound 0.4 µM, partner dose 7 µM) | 43.8 | 97.2 | 115 | 54.6 | 75.3 | 60.7 | 77.3 | 78.5 | 59 |
| C=C(c1ccc(C(=O)O)cc1)c1cc2c(cc1C)C(C)(C)CCC2(C)C [Bexarotene] + c1cc(-c2cnn3cc(-c4ccc(OCCN5CCCCC5)cc4)cnc23)ccn1 [Dorsomorphin] (first compound 10 µM, partner dose 2 µM) | 84.9 | 80.9 | 104 | 56.9 | 72.6 | 68.2 | 71.1 | 80.7 | 75.8 |
| NC1(c2ccc(-c3nc4ccn5c(=O)[nH]nc5c4cc3-c3ccccc3)cc2)CCC1 + CCc1ccc(CCOc2ccc(CC3SC(=O)NC3=O)cc2)nc1 [pioglitazone] (first compound 2 µM, partner dose 10 µM) | 41.3 | 57.6 | 86.5 | 65.3 | 87.6 | 70.5 | 58.9 | 76.1 | 56 |
| CN(c1ncccc1CNc1nc(Nc2ccc3c(c2)CC(=O)N3)ncc1C(F)(F)F)S(C)(=O)=O + COc1ccc2c(c1)CCC1C2CCC2(C)C(NCCCCCCN3C(=O)C=CC3=O)CCC12 [U73122] (first compound 0.4 µM, partner dose 2 µM) | 90.7 | 103 | 78.8 | 90.2 | 83.8 | 75.4 | 79.1 | 84.9 | 98.4 |
| NC1(c2ccc(-c3nc4ccn5c(=O)[nH]nc5c4cc3-c3ccccc3)cc2)CCC1 + COc1ccc(COc2ccc(Cc3cnc(N)nc3N)cc2OC)cc1 [GW2580] (first compound 2 µM, partner dose 5 µM) | 42.6 | 61.8 | 92.5 | 53.9 | 74.7 | 73.3 | 69.6 | 73.9 | 65.9 |
| CN(c1ncccc1CNc1nc(Nc2ccc3c(c2)CC(=O)N3)ncc1C(F)(F)F)S(C)(=O)=O + Oc1cc(-c2nc(-c3ccccc3)[nH]c2-c2ccncc2)ccc1Cl [L779450] (first compound 0.4 µM, partner dose 1 µM) | 35.7 | 13.9 | 89.6 | 71 | 73.8 | 46.6 | 36.3 | 65.8 | 57.9 |
